# Assay results reported in PubChem BioAssay AID686979 (National Center for Advancing Translational Sciences (NCATS), 2013).
# About 50,000 (12%) of roughly 420,000 compounds were called active. Inconclusive results, whose numbers are uncertain, are shown with a selection of clear calls. Calls come from the whole dose curve; as a rule, active = well fitted inhibition curve with a large enough effect; inconclusive = small, poorly fitted or top-dose-only effect; inactive = flat fitted curve, though single readings scatter. No potency is given beside an inconclusive call; the fits are too rough.
# Assay: qHTS for Inhibitors of human tyrosyl-DNA phosphodiesterase 1 (TDP1): qHTS in cells in presence of CPT; note: nearly all actives have a fitted effect of over 55% in size
# Details: chicken DT40 Tdp1-/-;hTDP1 cells + 20 nM CPT, ATP luminescence, 48 h; activity change, negative = growth inhibition: at 46.2 µM (top of the series) unless noted
# Method in brief: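 Chicken DT40 Tdp1-/- cells complemented with human TDP1, 400 cells/well, exposed to compounds plus 20 nM camptothecin for at least 48 h at 37 C; viability read as ATP content by CellTiter-Glo luminescence.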
# % is set by controls: 0 for no effect and ±100 for the full control effect; potency is the fitted concentration of half-maximal effect; tags give direction and shape of the fitted curve.
Structure (SMILES),Potency,"activity change, negative = growth inhibition"
COC(=O)C(C(=O)Nc1cccc(C)n1)C1CCCCCC1 (stereo unspecified),"inconclusive [inhibitor, single point]",
COc1ccc2cc(C[C@@H]3CC[C@@H](CNC(N)=O)O3)ccc2c1,,inactive: -9.49%
CCOC(=O)c1c[nH]c2c(Cl)ccc(Cl)c2c1=O,"inconclusive [inhibitor, partial curve]",
CC(OC(=O)CCN1C(=O)C2CC=CCC2C1=O)C(=O)c1ccc(F)cc1 (stereo unspecified),,inactive: 3.1%
CCCCNC(=O)C1(C)CCCCN1C(=O)c1cccc(OC(F)(F)F)c1 (stereo unspecified),"inconclusive [inhibitor, partial curve]",
COc1cc(/C=N/NC(=O)CCc2c(C)n[nH]c2C)cc(OC)c1OC,"inconclusive [inhibitor, partial curve]",
COc1ccc(CC(=O)Nc2cc(S(=O)(=O)N3CCCCC3)ccc2OC(C)C)cc1OC,"inconclusive [inhibitor, single point]",
Cc1c(Cl)cccc1NC(=S)NC(=O)c1ccccc1,,inactive: -14.8%
COc1ccc(-c2noc(CSc3nnc(C)n3-c3ccc(C)cc3)n2)cc1,"inconclusive [inhibitor, single point]",
O=C(Nc1ccc(Oc2ccccc2)cc1)c1csc([C@@H]2O[C@H](CO)[C@@H](O)[C@H]2O)n1,active: 16.4 µM,
N#CCN1C(=O)C(=O)N(Cc2cccc(C(F)(F)F)c2)C1=O,,inconclusive: -32.7% [inhibitor]
Cc1cc(NCCCN2CCOCC2)n2nc(C)c(-c3ccc(F)cc3)c2n1,"inconclusive [inhibitor, single point]",
CCCc1nc(-c2cc3ccccc3[nH]c2=O)no1,,inactive: -12.8%
COc1ccc(CCC(=O)Nc2nnc(C)s2)cc1,,inconclusive: -0.093% [inhibitor]
COc1ccc(C(=O)NCCc2nc3ccccc3[nH]2)cc1,,inactive: -18.7%
Cc1cc(C)nc(N2CCCC(C(=O)Nc3nnc(C)s3)C2)n1 (stereo unspecified),,inactive: -7.26%
Cn1c(=O)c2c(nc(NCc3ccccc3)n2Cc2ccc(Cl)c(Cl)c2)n(C)c1=O,active: 8.2 µM,
O=C(COc1cccc2cccnc12)Nc1cccc(S(=O)(=O)N2CCCC2)c1,"inconclusive [inhibitor, single point]",
CC1Cc2ccccc2N1C(=O)CO/N=C/c1ccccc1OC(F)F (stereo unspecified),"inconclusive [inhibitor, single point]",
CC(=O)Nc1ccc(NC(=O)CN2CCN(c3cccc(C(F)(F)F)c3)CC2)cc1,"inconclusive [inhibitor, partial curve, poor fit]",
O=C1CCC(C(=O)Nc2ccccc2N2CCOCC2)=NN1,,inactive: 3.29%
CS(=O)(=O)N1Cc2cc(C(=O)NCC3CCCCC3)nc(-c3cccc(-c4cccnc4)c3)c2[C@H]1CCO,"inconclusive [inhibitor, single point]",
COCCNC(=O)CSc1nc2nn(-c3ccccc3)c(=O)c-2c2n1CCCCC2,"inconclusive [inhibitor, single point]",
Cc1ccc(-n2cc(CN3CCC(CO)(Cc4cccc(C(F)(F)F)c4)CC3)cn2)cc1,active: 9.2 µM,

Structure (SMILES),Potency,"activity change, negative = growth inhibition"
N#C/C(=C\c1ccc([N+](=O)[O-])o1)C(=O)Nc1ccc(F)cc1,active: 1.3 µM,
CCc1cccc(OCCCCNCCOC)c1,,inactive: -9.78%
COc1ccc(N2CC(C(=O)Nc3ccccc3-c3nc(-c4ccc(C)cc4)no3)CC2=O)cc1 (stereo unspecified),,inactive: -3.41%
CC(=O)C(C)n1c(CN(C)Cc2ccccc2)nc2c1c(=O)n(C)c(=O)n2C (stereo unspecified),active: 8.2 µM,
CNc1cncc(-c2ccoc2)n1,"inconclusive [inhibitor, single point]",
CCOc1ccc(CSCCNC(=S)Nc2ccccc2)cc1,active: 23.1 µM,
C#CCOCCOCCOCCNc1nc(N2CCN(C(=O)[C@H](CCCCN)n3cc(CCC(=O)O)nn3)CC2)nc(N2CCN(C(=O)[C@H](CCCCN)n3cc(CC(C)O)nn3)CC2)n1 (stereo partly specified),,inactive: -5.59%
CCCNC(=O)c1onc(CSc2ccc(Cl)cc2)c1C(=O)NC(C)C,"inconclusive [inhibitor, single point]",
C=CCn1c(=N)n(CC(=O)c2ccc(Cl)cc2)c2ccccc21,active: 9.2 µM,
Clc1ccc(/C=N/NC(=Nc2ccccc2)c2ccccn2)c(Cl)c1,"inconclusive [inhibitor, single point]",
COc1cccc(C(=O)Nc2nnc(S(=O)(=O)N3CCCCC3)s2)c1,"inconclusive [inhibitor, single point]",
CCCCCC(=O)NNC(=O)c1ccc(-c2ccccc2)cc1,,inactive: -2.22%
CC1CCC(N2CCN(c3ccc([N+](=O)[O-])cc3)CC2)CC1 (stereo unspecified),"inconclusive [inhibitor, partial curve, poor fit]",
CC1CCN(C(=O)c2[nH]cnc2C(=O)N[C@@H](Cc2ccccc2)C(=O)OC(C)(C)C)CC1,"inconclusive [inhibitor, single point]",
CCOc1ccc(C(CC(=O)Nc2ccc(C(=O)OC)cc2)N2Cc3ccccc3C2=O)cc1OC (stereo unspecified),,inactive: 2.17%
Cc1ccsc1C(=O)OCC(=O)N1CC(C)CC(C)C1 (stereo unspecified),,inactive: -4.49%
Cc1ccc(CCNC(=O)C2CCCN(S(=O)(=O)c3cccc4nsnc34)C2)cc1 (stereo unspecified),"inconclusive [inhibitor, partial curve]",
C=CCn1c(=NC(=O)c2ccccc2[N+](=O)[O-])sc2cc(S(C)(=O)=O)ccc21,active: 16.4 µM,
O=c1[nH]ccc2c(O)cccc12,"inconclusive [inhibitor, single point]",
CC(=NNc1nc2ccccc2o1)c1cc2ccccc2cn1,active: 0.13 µM,
COC(=O)CNC(=O)C1Nc2ccc(OC(F)(F)F)cc2C2C=CCC12 (stereo unspecified),"inconclusive [inhibitor, single point]",
Nc1nnc(CC(=O)N/N=C/c2ccc(-c3ccc(Cl)cc3Cl)o2)s1,,inactive: -16.4%
O=C1C(=O)N(c2ccc(O)cc2)C(c2ccccc2[N+](=O)[O-])/C1=C(\O)c1ccccc1 (stereo unspecified),,inactive: -1.39%
COc1cccc(-n2c(SCc3cc(=O)oc4cc(O)c(O)cc34)nc3ccccc3c2=O)c1,"inconclusive [inhibitor, single point]",

Structure (SMILES),Potency,"activity change, negative = growth inhibition"
CCOC(=O)Cn1c(=O)c2c(nc(Br)n2Cc2ccc(Cl)cc2)n(C)c1=O,active: 13 µM,
COc1ccc(Nc2nc(N3CCOCC3)nc(N3CCOCC3)n2)cc1Cl,"inconclusive [inhibitor, single point]",
COc1cccc(NC(=O)c2oc3ccc(S(=O)(=O)N4CCC5(CC4)OCCO5)cc3c2C)c1,active: 5.8 µM,
COc1ccccc1-n1cnnc1SC(C)C(=O)Nc1cccc([N+](=O)[O-])c1 (stereo unspecified),"inconclusive [inhibitor, single point]",
Cc1cc(NC(=O)C(C)SCC(=O)N(C)CC(=O)Nc2ccc(F)cc2)no1 (stereo unspecified),,inactive: -6.36%
COc1ccc(Cn2nnnc2C(c2ccccc2)N2CCN(C3CCCC3)CC2)cc1 (stereo unspecified),"inconclusive [inhibitor, single point]",
O=c1c(-c2ccccc2)nc2cncnc2n1Cc1ccccc1,"inconclusive [inhibitor, single point]",
O=C(Nc1ccc(F)cc1)c1ccc(CSc2ccc(Cl)cc2)o1,"inconclusive [inhibitor, single point]",
CCCCn1c(N)c(N(CC(C)C)C(=O)CN(C)S(=O)(=O)c2ccc(F)cc2)c(=O)[nH]c1=O,,inactive: 12.9%
COC(=O)c1ccc(COC(=O)c2ccc(N(C)C)cc2)cc1,"inconclusive [inhibitor, single point]",
CN(/N=C/c1ccc(O)cc1O)c1ncc(C(F)(F)F)cc1Cl,"inconclusive [inhibitor, single point]",
Cc1ccccc1N=Nc1ccc(O)c2ncccc12,active: 2.59 µM,
CCOc1ccccc1Nc1nc(N)nc(CN(C)C2CCCCC2)n1,"inconclusive [inhibitor, single point]",
O=C(CNC(=O)c1ccncc1)N/N=C/c1cc(Br)ccc1OCc1ccccc1,"inconclusive [inhibitor, single point]",
Cc1ccc(CCNC(=O)C2CCCN(S(=O)(=O)c3ccc4c(c3)oc(=O)n4C)C2)cc1 (stereo unspecified),,inactive: -25.2%
CCc1nc(NC(C)(C)C)c2cnn(-c3ccccc3)c2n1,"inconclusive [inhibitor, single point]",
NC1=NC[C@@H](Cc2ccc(O)cc2)N1CCC12CC3CC(CC(C3)C1)C2,active: 20.6 µM,
CC(=O)NC12CC3CC(C1)CC(C(=O)N1CCN(S(=O)(=O)c4cccc([N+](=O)[O-])c4)CC1)(C3)C2,"inconclusive [inhibitor, single point]",
COc1ccc(Nc2nc(C)c(-c3ccccc3)s2)cc1,"inconclusive [inhibitor, single point]",
CC(C)c1cccc(C(C)C)c1NC(=O)COC(=O)c1ccc(OCC(=O)Nc2cccc(C(F)(F)F)c2)cc1,"inconclusive [inhibitor, single point]",
O=C(Nc1cccc(S(=O)(=O)N2CCOCC2)c1)c1cnccn1,"inconclusive [inhibitor, single point]",
CCOc1ccc(CCNC(=O)CCSCc2cccc(Cl)c2)cc1OCC,"inconclusive [inhibitor, single point]",
Cc1sc2c(c1C)C(O)=C(C(=O)Nc1ccccc1)S(=O)(=O)N2C,"inconclusive [inhibitor, single point]",
